Assay results as given in PubChem BioAssay AID588591 (National Center for Advancing Translational Sciences (NCATS), 2011).
Screen size: about 390,000 compounds; about 4,700 (1.2%) were called active. The inconclusive results got no clear call from the source; some entries with a clear call stand among them for comparison. Calls follow the shape of the dose curve; as a rule, active = well fitted inhibition curve with a large enough effect; inconclusive = small, poorly fitted or top-dose-only effect, or another doubt; inactive = no such curve, though single readings can be large or run the other way. Potencies beside an inconclusive call are fits to weak or partial responses and may not hold up.

Biological target: DNA polymerase eta (Homo sapiens) (UniProt Q9Y253)
UniProt Q9Y253, sequence (Q9Y253 whole entry, looked up): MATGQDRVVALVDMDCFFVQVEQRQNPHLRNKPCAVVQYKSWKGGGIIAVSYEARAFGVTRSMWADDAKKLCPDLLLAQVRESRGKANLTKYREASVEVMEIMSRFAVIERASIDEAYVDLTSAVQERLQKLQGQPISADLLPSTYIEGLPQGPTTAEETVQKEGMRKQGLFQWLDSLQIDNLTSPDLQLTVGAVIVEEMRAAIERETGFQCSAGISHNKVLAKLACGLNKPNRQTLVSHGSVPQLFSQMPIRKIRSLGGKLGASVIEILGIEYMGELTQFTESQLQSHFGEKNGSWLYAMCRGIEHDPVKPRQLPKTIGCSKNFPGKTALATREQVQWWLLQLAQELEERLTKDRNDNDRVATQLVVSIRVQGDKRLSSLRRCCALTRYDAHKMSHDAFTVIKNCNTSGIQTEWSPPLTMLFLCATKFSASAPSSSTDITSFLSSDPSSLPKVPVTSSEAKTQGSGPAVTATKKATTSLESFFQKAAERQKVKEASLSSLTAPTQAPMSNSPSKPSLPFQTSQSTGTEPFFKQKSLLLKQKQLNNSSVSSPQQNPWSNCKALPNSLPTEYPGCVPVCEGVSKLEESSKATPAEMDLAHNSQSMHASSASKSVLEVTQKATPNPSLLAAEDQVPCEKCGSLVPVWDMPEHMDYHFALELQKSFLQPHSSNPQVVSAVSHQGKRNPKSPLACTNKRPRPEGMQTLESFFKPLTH
Experiment: qHTS for Inhibitors of Polymerase Eta
Details: recombinant Pol eta, fluorescent DNA replication assay; series mostly up to 114 µM
In short: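 Pol eta (10 nM) was preincubated with compounds for 15 min at room temperature, after which fluorescent replication substrate (50 nM final) was added to start the reaction. Fluorescence was read kinetically at 0 and 10 min.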
Potency is read from the fitted curve at half-maximal effect; tags tell the direction and shape of the fitted curve.

Structure (SMILES)	Potency
COc1ccc(N2CCN(C(=O)COC(=O)c3oc4ccc(OC)cc4c3C)CC2)cc1	inconclusive: 22.4 µM [inhibitor, single point]
CCOc1ccc2nc(NC(=O)c3ccoc3C)sc2c1	inactive
CCCCNC(=O)c1onc(CSc2cc(C)cc(C)c2)c1C(=O)NCCCC	inconclusive: 79.4 µM [inhibitor, partial curve, poor fit]
N#Cc1ccc(-c2ccccc2)nc1SCC(=O)c1cc2ccccc2oc1=O	inconclusive: 31.6 µM [inhibitor, partial curve, poor fit]
CN(CCC#N)C(=O)COC(=O)c1c2c(nc3ccccc13)/C(=C/c1ccco1)CC2	active: 6.31 µM
Cc1sc2nc(CSc3nnnn3-c3ccc(Cl)cc3)[nH]c(=O)c2c1C	inconclusive: 28.2 µM [inhibitor, single point]
COc1ccc(S(=O)(=O)NCCc2sc(-c3ccccc3)nc2C)cc1F	inactive
C[C@](N)(Cc1ccc(O)c(O)c1)C(=O)O	inconclusive: 3.16 µM [inhibitor, partial curve]
Cc1cc2cc3c(=O)[nH]c(=O)cc-3n(CC(O)C(O)C(O)CO)c2cc1C (stereo not drawn)	inconclusive: 39.8 µM [inhibitor, full curve]
O=C(O)c1ccc2c(c1)C1C=CCC1C(c1ccncc1)N2 (stereo not drawn)	inconclusive: 20 µM [inhibitor, partial curve, poor fit]
COc1cc(/C=C2/C(=O)NN(c3cccc(C)c3)C2=O)cc([N+](=O)[O-])c1O	active: 22.4 µM
O=C(NNC(=O)c1cccc2ccccc12)c1ccc(Br)cc1	inactive
CNC(=O)c1ccc(Nc2nnc(-c3ccc(C)c(S(=O)(=O)NCC4CCCO4)c3)c3ccccc23)cc1 (stereo not drawn)	inconclusive: 28.2 µM [inhibitor, partial curve, poor fit]
COc1cc(OC)cc(C(=O)OCC(=O)Nc2nnc(-c3ccccc3)o2)c1	inactive
O=C(Nc1nccs1)c1cn(-c2ccccc2)nc1-c1ccncc1	inconclusive: 50.1 µM [inhibitor, partial curve]
CN1CCc2c(sc(NC(=O)c3ccco3)c2C(N)=O)C1	inactive
COc1cc2c(C(=O)N3CCN(c4cc(Cl)ccc4C)CC3)cn(CC(C)C)c(=O)c2cc1OC	inactive
CC(C)(C)NC(=O)c1ccc2c(c1)C(=O)N(Cc1ccco1)C2=O	inactive
CCCCCCCNC1=CC(=O)CC(c2ccco2)C1 (stereo not drawn)	inactive
O=C(/C=C/c1ccco1)Nc1cccc(NC(=O)/C=C/c2ccco2)n1	active: 20 µM
CC(C)C[C@H](NC(=O)c1nc[nH]c1C(=O)NCc1ccccc1)C(=O)OCc1ccccc1	inconclusive: 79.4 µM [inhibitor, partial curve, poor fit]
CCOC(=O)c1ccc(NC(=O)c2cccc(S(=O)(=O)N3CCOCC3)c2)cc1	inconclusive: 35.5 µM [inhibitor, partial curve, poor fit]
Cc1nc2ccccc2n1CC(=O)c1ccc(O)c(O)c1	inconclusive: 3.55 µM [inhibitor, full curve, poor fit]

Structure (SMILES)	Potency
Cc1ccc(-c2cc(C(=O)OCC(=O)N(C)c3c(N)n(Cc4ccccc4)c(=O)[nH]c3=O)c3ccccc3n2)o1	inactive
Cc1ccnc(NC(=O)c2ccc([N+](=O)[O-])o2)c1	inconclusive: 25.1 µM [inhibitor, single point]
COc1ccc(NC(=O)CSc2oc(-c3ccc(F)cc3)nc2S(=O)(=O)c2ccc(C)cc2)c(OC)c1	inconclusive: 89.1 µM [inhibitor, partial curve]
Cc1ccc(CN(Cc2cc3cc4c(cc3[nH]c2=O)OCCO4)Cc2nnnn2Cc2ccco2)cc1	inconclusive: 89.1 µM [inhibitor, partial curve, poor fit]
CSc1ccccc1NC(=O)c1cc2c(=O)n3ccccc3nc2s1	inactive
CN1C(CC(=O)Nc2ccc(Br)cc2)c2ccccc2CC1(C)C (stereo not drawn)	inconclusive: 79.4 µM [inhibitor, partial curve, poor fit]
CCCCOc1ccccc1NC(=O)C=C(C)C	inactive
N#C/C(=C\c1ccc(Sc2ccc(Cl)cc2)o1)c1nc2ccccc2[nH]1	inconclusive: 35.5 µM [inhibitor, partial curve, poor fit]
O=C(/C=C/c1ccco1)c1cccnc1	active: 14.1 µM
CCN(CC)S(=O)(=O)c1cc(NC(=O)CN2C(=O)NC(C)(c3ccccc3)C2=O)ccc1C (stereo not drawn)	inactive
COCCCNC(=O)c1cc(Sc2ccc(F)cc2)nc2ccccc12	inactive
COc1cccc(CNC(=O)c2ccc(CNS(=O)(=O)c3ccc(C)cc3)cc2)c1	inconclusive: 2 µM [inhibitor, partial curve, poor fit]
Cn1cccc1-c1cc(C(=O)N2CCc3c([nH]c4ccccc34)C2c2ccccn2)[nH]n1 (stereo not drawn)	inconclusive: 79.4 µM [inhibitor, partial curve, poor fit]
O=C(O)CC(CC(=O)O)n1cccc1	inactive
Cc1cc(-c2ccccc2)n2nc(-c3ccc(Cl)cc3)cc2n1	inconclusive: 56.2 µM [inhibitor, partial curve, poor fit]
Cc1ccc(OCC(=O)NCc2ccco2)cc1C	inconclusive: 31.6 µM [inhibitor, partial curve, poor fit]
CCOc1cc(/C=C2\SC(=S)N(Nc3ccccc3)C2=O)ccc1O	inconclusive: 28.2 µM [inhibitor, full curve]
CCOC(=O)c1cccc(NC(=O)CC2C(=O)N(c3ccc(Cl)cc3)C(=O)N2C2CCCC2)c1 (stereo not drawn)	inactive
Cc1ccc(S(=O)(=O)N[C@@H](C)C(=O)N2CCC(C(=O)N[C@@H](Cc3ccccc3)C(=O)O)CC2)cc1	inactive
CC(=O)Nc1cc(C(=O)NCc2ccc(C)cc2)ccc1S(=O)(=O)c1ccc(Cl)cc1	inactive
CC(C(=O)N1CC2(C)CC1CC(C)(C)C2)N1C(=O)c2ccccc2C1=O (stereo not drawn)	inconclusive: 39.8 µM [inhibitor, single point]
COc1ccc(/C=N/NC(=O)Nc2cccc3nsnc23)c(OC)c1	inconclusive: 8.91 µM [inhibitor, full curve, poor fit]
CC(=O)Oc1ccc(N2C(=O)C3C4C=CC(C5CC45)C3C2=O)cc1[N+](=O)[O-] (stereo not drawn)	inconclusive: 10 µM [inhibitor, partial curve]

Structure (SMILES)	Potency
CCn1c(SCc2cccc(Br)c2)nnc1-c1nonc1NC(C)=O	inactive
O=C(O)c1ccc(CSc2nc3ccc(N4C(=O)C5C6C=CC(C6)C5C4=O)cc3s2)cc1 (stereo not drawn)	active: 28.2 µM
O=C(O)C(c1ccccc1)N1C(=O)/C(=C\c2ccc(-c3cccc(Cl)c3)o2)SC1=S (stereo not drawn)	active: 44.7 µM
CCc1cc2c(NCc3ccccc3)nc(C)nc2s1	inconclusive: 89.1 µM [inhibitor, partial curve, poor fit]
Cc1cccc(-n2ncc(C(=O)N3CCN(Cc4ccccc4)CC3)c2C2CCN(C(=O)OC(C)(C)C)CC2)c1	inactive
NS(=O)(=O)c1ccc(N=Nc2c[nH]c(=O)c(O)c2)cc1	active: 22.4 µM
O=C(COc1ccc(Cl)cc1)NCc1nnc(SCC(=O)c2ccccc2)o1	inactive
Cc1cc(C)c2c(N)c(C(=O)c3cccc(Cl)c3)sc2n1	inconclusive: 100 µM [inhibitor, partial curve, poor fit]
CC1(OC(=O)CCc2ccccc2)C(=O)C=C2C=C(c3ccc(C#N)cc3)N(Cc3ccco3)C=C2C1=O (stereo not drawn)	inconclusive: 17.8 µM [inhibitor, full curve, poor fit]
COc1ccc(N(CC(C)C)S(=O)(=O)c2nnc(NC(=O)c3cccs3)s2)cc1	inconclusive: 100 µM [inhibitor, partial curve, poor fit]
COc1ccc(CC(=O)NC(C)c2nnc(SCC(=O)Nc3ccccc3)n2C)cc1 (stereo not drawn)	inactive
COc1cc(/C=N\NC(=O)c2ccc(C)nc2)ccc1OC(=O)c1ccc2c(c1)OCO2	inconclusive: 17.8 µM [inhibitor, partial curve, poor fit]
c1ccc(CSc2ncnc3ccccc23)cc1	inconclusive: 0.112 µM [inhibitor, partial curve, poor fit]
Cc1cccc2nc(Cn3c(=O)n(CCCC(=O)NCc4ccco4)c(=O)c4ccccc43)cc(=O)n12	inconclusive: 28.2 µM [inhibitor, single point]
O=c1[nH]c2ccc(S(=O)(=O)N3CCN(c4ccc(F)cc4)CC3)cc2o1	inconclusive: 100 µM [inhibitor, partial curve, poor fit]
Cc1ccc(Cl)cc1NC(=S)N(Cc1cccnc1)Cc1ccccc1Cl	inconclusive: 31.6 µM [inhibitor, partial curve, poor fit]
O=C1C=C(Nc2ccc(O)cc2)CC(c2ccco2)C1 (stereo not drawn)	inconclusive: 31.6 µM [inhibitor, single point]
Cn1c(=O)oc2cc(S(=O)(=O)Nc3cccc([N+](=O)[O-])c3)ccc21	inactive
CC(NC(=O)COC(=O)c1ccc([N+](=O)[O-])o1)c1ccccc1 (stereo not drawn)	active: 89.1 µM
O=C(Nc1cc(Cl)cc(Cl)c1)c1coc(=O)c(Br)c1	inconclusive: 56.2 µM [inhibitor, partial curve]
O=C1c2ccccc2C(=O)c2cc(S(=O)(=O)Nc3ccccc3)ccc21	inconclusive: 2.51 µM [inhibitor, full curve, poor fit]
O=C(CCS(=O)(=O)c1ccc(Br)cc1)NCc1ccco1	inconclusive: 14.1 µM [inhibitor, full curve, poor fit]
